Assay results taken from PubChem BioAssay AID1745845 (National Center for Advancing Translational Sciences (NCATS), 2022).
About 2,600 (0.72%) of roughly 360,000 compounds were called active. Inconclusive means that the source gave no clear call. Such entries were picked first, then a sample of the others. Calls follow the shape of the dose curve; as a rule, active = well fitted inhibition curve with a large enough effect; inconclusive = small, poorly fitted or top-dose-only effect; inactive = no such curve, though single readings can be large or run the other way. Potencies beside an inconclusive call are fits to weak or partial responses and may not hold up.

Experiment: Primary qHTS for Inhibitors of ATXN expression; also: nearly all actives have a fitted effect of over 55% in size
Conditions: HEK-293 ATXN2-luciferase reporter, luminescence, 24 h; series mostly up to 57 µM
How it was run: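 qHTS (up to 57 uM final) was run with 24 h compound exposure of reporter cells at 37 °C. Each well was multiplexed: SteadyGlo luminescence measured ATXN2-luciferase expression after a fluorogenic Gly-Phe-AFC viability readout (25 uM final).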
Potency is read from the fitted curve at half-maximal effect; tags tell the direction and shape of the fitted curve.

| SMILES | Potency |
| --- | --- |
| CCc1ccc(-n2c(C)nc3cc(C(=O)NCCc4ccccc4)ccc32)cc1 | inconclusive: 35.5 µM [inhibitor, single point] |
| O=C(Nc1cccnc1)C1Cc2c(-c3ccc4c(c3)OCO4)ccnc2O1 (stereo not given) | inconclusive: 3.55 µM [inhibitor, full curve, poor fit] |
| Cc1cc(C)c(CN2CCN(C(=O)Cn3cnc(C(=O)Nc4ccc(C)c(C)c4)n3)CC2)c(C)c1 | inconclusive: 39.8 µM [inhibitor, single point] |
| COc1cc(CN(CCN(C)C)Cc2ccccc2)ccc1OCc1ccccc1 | inactive |
| COc1ccccc1C(=O)Nc1nc2ccccc2s1 | inconclusive: 1.26 µM [inhibitor, full curve, poor fit] |
| OCc1nc2ccccc2n1CCCCOc1ccccc1 | inactive |
| CCn1cc(CN2CCCC(CO)(Cc3ccc(F)cc3)C2)c2ccccc21 (stereo not given) | inconclusive: 35.5 µM [inhibitor, partial curve, poor fit] |
| COc1cc(-c2cc3nc(NCc4cccs4)ccn3n2)cc(OC)c1OC | inconclusive: 2.51 µM [inhibitor, full curve] |
| Cc1cccc(NC(=O)C2CCN(c3nccc(C)n3)CC2)c1 | inactive |
| CC(C)(C)C(=O)N1CCN(c2ccc(NC(=O)c3ccc4c(c3)OCCO4)cc2)CC1 | inconclusive: 28.2 µM [inhibitor, partial curve] |
| Cc1cc(NC(c2cccnc2)c2ccc3cccnc3c2O)no1 (stereo not given) | active: 3.98 µM |
| N/C(=N\OC(=O)c1ccc(Cl)cc1Cl)c1ccccn1 | inconclusive: 12.6 µM [inhibitor, partial curve, poor fit] |
| O=C(CSc1oc(-c2ccco2)nc1S(=O)(=O)c1ccc(Cl)cc1)c1ccccc1 | inactive |
| Cc1ccc(CNC(=O)c2cc3c(=O)n4ccccc4nc3n(CC3CCCO3)c2=N)cc1 (stereo not given) | inconclusive: 35.5 µM [inhibitor, partial curve, poor fit] |
| Cc1cccc(C(CC(=O)NCC2(c3ccccc3)CCCC2)c2ccccc2)c1O (stereo not given) | inconclusive: 31.6 µM [inhibitor, single point] |
| COc1ccc(Br)cc1CN(C)CC(=O)Nc1cccc(S(=O)(=O)N2CCCC2)c1 | inconclusive: 28.2 µM [inhibitor, single point] |
| Cc1cc2ccc3ccccc3c2cc1CN(C)C | inactive |
| Cn1nc(C(F)(F)F)c2cc(C(=O)Nc3ccc(Cl)cc3)sc21 | inconclusive: 12.6 µM [inhibitor, partial curve, poor fit] |
| CCOc1ccc(CCNC(=O)c2cc3c(-c4cccc(OC)c4)nn(C)c3s2)cc1OCC | inconclusive: 15.8 µM [inhibitor, partial curve, poor fit] |
| Cc1cccc(-c2ccc3ncnc(NCc4cccs4)c3c2)c1 | inconclusive: 35.5 µM [inhibitor, single point] |
| CCCn1nc(C(=O)Nc2nc(-c3ccccn3)cs2)c2ccccc2c1=O | active: 22.4 µM |
| Cc1cc(NC2CCCCC2)nc(NCc2ccccc2)n1 | inconclusive: 31.6 µM [inhibitor, single point] |
| Cc1c(C(=O)NC(=S)Nc2ccc(NC(=O)c3cccs3)cc2)oc2ccccc12 | inactive |
| Cc1ccc2nc(/C(C#N)=C/c3ccc(-c4cccc(Cl)c4)o3)[nH]c2c1 | inconclusive: 25.1 µM [inhibitor, single point] |

| SMILES | Potency |
| --- | --- |
| COc1ccc(CCNC(=O)C(NS(=O)(=O)c2cccc3nsnc23)C(C)C)cc1OC (stereo not given) | inactive |
| Cc1ccc(C(=O)/C=C/Nc2ccccn2)cc1 | inconclusive: 11.2 µM [inhibitor, single point] |
| COc1cc(/C=N/NC(=O)Nc2cccc3nsnc23)cc(OC)c1OC | inconclusive: 25.1 µM [inhibitor, partial curve, poor fit] |
| CCOc1ccc(S(=O)(=O)NCCC(=O)N2CCN(c3ccc(OC)cc3)CC2)cc1 | inconclusive: 0.947 µM [inhibitor, partial curve, poor fit] |
| COc1ccc(-c2nnc(SC(=O)N3c4ccccc4Sc4ccccc43)o2)cc1 | inconclusive: 31.6 µM [inhibitor, single point] |
| Cc1cc(Cn2nc(-c3ccccc3)cc2C(=O)NCc2cccc(Br)c2)on1 | inconclusive: 39.8 µM [inhibitor, single point] |
| S=c1nc(C2CC2)n(-c2ccccc2)[nH]1 | inactive |
| CCc1nnc(N2C(=N)SCC2=O)s1 | inactive |
| Cc1ccc(O)c(C2=Nc3ccccc3N=C(c3ccco3)C2)c1 | inactive |
| Cc1nn(Cc2c(F)c(F)c(F)c(F)c2F)c(C)c1NC(=O)c1cccc(COc2ccccc2Cl)c1 | inconclusive: 17.8 µM [inhibitor, single point] |
| COc1ccc(-c2noc(CSc3nnc(-c4ccncc4)n3-c3ccccc3)n2)cc1 | inconclusive: 25.1 µM [inhibitor, single point] |
| Cc1nc2ccc(NC(=O)c3ccccc3)cc2s1 | inactive |
| COC(=O)c1c(NC(=O)c2ccc(S(=O)(=O)N3CCCCC3C)cc2)sc2c1CCN(C(C)C)C2 (stereo not given) | inactive |
| C=C1CC(COc2cc(=O)oc3ccccc23)(c2ccccc2)OC1=O (stereo not given) | inconclusive: 31.6 µM [inhibitor, single point] |
| COc1ccc(NC(=O)CCOc2ccc(C)cc2)cc1S(=O)(=O)N1CCCCC1 | inconclusive: 28.2 µM [inhibitor, single point] |
| CCSC1=C(C#N)C(c2cccs2)C(C(=O)OC)=C(C)N1 (stereo not given) | inactive |
| O=C(N/N=C/c1ccccc1O)c1ccc2c(c1)OCO2 | inconclusive: 8.91 µM [inhibitor, partial curve, poor fit] |
| CC(=O)Oc1ccc(Nc2ccccc2)cc1 | inconclusive: 8.91 µM [inhibitor, partial curve] |
| Cc1ccc(C)c(NS(=O)(=O)c2ccc3c(c2)Cc2cc(S(=O)(=O)Nc4cc(C)ccc4C)ccc2-3)c1 | inactive |
| Cc1ccc2[nH]c(=O)c3cc(C(=O)N(C)C4CCCCC4)sc3c2c1 | inactive |
| O=C(Nc1ccccc1)c1[nH]ncc1[N+](=O)[O-] | inactive |
| CCCCOc1ccc(S(=O)(=O)Nc2cccc(-c3ccc(N4CCOCC4)nn3)c2)cc1 | inactive |
| COc1cccc(/C=N/NC(=O)COc2cccc3cccnc23)c1O | inconclusive: 11.2 µM [inhibitor, partial curve, poor fit] |
| O=C(CNc1cccc2ccccc12)N/N=C/c1ccc([N+](=O)[O-])o1 | inconclusive: 14.1 µM [inhibitor, partial curve] |

| SMILES | Potency |
| --- | --- |
| CC(C)COc1ccc(C(=O)OCC(=O)N(C)CC(=O)Nc2ccc(F)cc2)cc1 | inconclusive: 39.8 µM [inhibitor, single point] |
| CC(C)c1ccc(N=c2c([N+](=O)[O-])nn(-c3ccc4c(c3)OCCO4)n2O)cc1 | inactive |
| CC1=C(C(=O)N(C)C)CC(CC(=O)NCc2ccco2)C(=O)N1CCC1=CCCCC1 (stereo not given) | inactive |
| CCOc1ccccc1NC(=O)C1(S(=O)(=O)c2ccc(Cl)cc2)CC1 | inactive |
| COc1ccc(-c2cn[nH]c2-c2ccc(OCc3ccc(F)cc3)cc2O)cc1OC | inconclusive: 39.8 µM [inhibitor, single point] |
| CC(C)(C)c1ccc(CN2C3=NCCCN3c3ccccc32)cc1 | inconclusive: 8.91 µM [inhibitor, partial curve, poor fit] |
| CC(Sc1ncc(S(=O)(=O)c2ccc(C(C)C)cc2)c(N)n1)C(=O)Nc1ccccc1 (stereo not given) | inconclusive: 14.1 µM [inhibitor, partial curve] |
| c1ccc2nc(-c3nc4ccccc4o3)ccc2c1 | inconclusive: 8.91 µM [inhibitor, partial curve, poor fit] |
| N#Cc1cccc2c1-c1ccccc1/C2=N/NC(N)=O | inconclusive: 35.5 µM [inhibitor, single point] |
| O=S1(=O)C[C@@H](N2CCC(Cc3ccccc3)CC2)[C@H](COCc2ccccc2)N1 | inactive |
| COc1ccc(C2=CC(=O)CC(c3ccc(F)cc3)C2)cc1 (stereo not given) | inactive |
| Cc1ccc2c(c1)c1c(n2CC(O)CNC2CCCCC2)CCCC1 (stereo not given) | inconclusive: 28.2 µM [inhibitor, single point] |
| COc1ccc(NC(=O)c2c(NCc3ccc(C)o3)sc3c2CCC(C)C3)cc1 (stereo not given) | inconclusive: 39.8 µM [inhibitor, single point] |
| CCCCn1c(=O)c(-c2ccccc2)c(O)c2ccccc21 | inconclusive: 35.5 µM [inhibitor, partial curve, poor fit] |
| CCOC(=O)c1ccc(NC(=O)c2nc(S(=O)(=O)Cc3ccccc3)ncc2Cl)cc1 | inconclusive: 25.1 µM [inhibitor, single point] |
| Cc1c(C(=O)NCc2cccs2)sc(=O)n1Cc1ccc(S(C)(=O)=O)cc1 | inactive |
| CCOc1ccc(C(=O)Nc2ccc(Cc3ccncc3)cc2)cc1Br | inconclusive: 22.4 µM [inhibitor, single point] |
| CCOC(=O)CCN(Cc1ccccc1)S(=O)(=O)c1csc(C(N)=O)c1 | inactive |
| O=C(NCCCN1CCN(c2ccc(F)cc2)CC1)c1cc2c(s1)-c1ccccc1OC2 | active: 28.2 µM |
| CCOc1ccc(-c2nc3c(c(CC)nn3-c3ccccc3)c3cc(OC)c(OC)cc23)cc1 | inactive |
| Cc1ccc(C(=O)CC2(O)C(=O)N(Cc3ccccc3Cl)c3ccccc32)o1 (stereo not given) | inactive |
| COC(=O)[C@@]1(Cc2ccc(F)cc2)[C@H]2C(CC(=O)C(=O)N3CCCC3)C(=O)C[C@H]2CN1C(=O)c1ccccc1 (stereo not given in full) | inconclusive: 31.6 µM [inhibitor, single point] |
